Experimental data from the supplement of paper PMC3334620.
Whole data set: some 33,000 sequences, median “E-score (-0.5 to 0.5)” near -0.017, cut for the highest 2% near 0.3. The list shows a part of the results.

These sequences were tested against T1, Sut1 (UniProt P53032) (assay: PBM E-score (8-mer binding enrichment) (E-score (-0.5 to 0.5)); higher = stronger / more preferred TF binding; most listed sequences are background and not binding sites). Conditions: protein concentration: 200 nM; construct: GST-full length.
T1 sequence: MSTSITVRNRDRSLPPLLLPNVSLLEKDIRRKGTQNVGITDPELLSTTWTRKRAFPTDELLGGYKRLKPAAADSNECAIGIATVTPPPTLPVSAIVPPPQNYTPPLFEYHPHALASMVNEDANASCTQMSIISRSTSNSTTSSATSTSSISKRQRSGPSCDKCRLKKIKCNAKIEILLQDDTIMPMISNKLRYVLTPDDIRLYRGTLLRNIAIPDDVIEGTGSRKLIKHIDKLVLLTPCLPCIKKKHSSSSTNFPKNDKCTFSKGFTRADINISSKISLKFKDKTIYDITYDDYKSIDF
Outline: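 Masliner-normalised scans of fluorescent anti-GST signal were the basis for scoring. That signal came from GST-tagged yeast transcription factors applied at about 100-200 nM to double-stranded universal all-10-mer Agilent arrays on fresh or once-stripped slides. Each ungapped eight-base word, pooled with its reverse complement, received an E-score from the Universal PBM Analysis Suite.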

Going from GGGCGCGA to CTCCAAGC, the “PBM E-score” value rises from -0.167 to -0.107.

Going from AGAGGAAG to CATACATG, the “PBM E-score” value rises from -0.187 to 0.105.

Compared with ACTCGCAA, ATGTTACG is higher in “PBM E-score” value: -0.0227 for the first, -0.00828 for the second.

First: CAGCCTCC
Second: ACGCCCGG
The “PBM E-score” value of the first is lower: -0.243 for the first, -0.00596 for the second.

Compared with GGGTTTTA, CTTTACTC is lower in “PBM E-score” value: 0.0116 for the first, 0.0111 for the second.

Compared with CGGGGCTA, AAGTCTTG is higher in “PBM E-score” value: -0.158 for the first, -0.131 for the second.

First: ATAAAGTA
Second: AAAAGCTA
The “PBM E-score” value of the first is higher: 0.279 for the first, 0.027 for the second.

First: CACCCTCA
Second: AGTACCCA
The “PBM E-score” value of the first is lower: -0.194 for the first, -0.129 for the second.

Going from TCCTTAAA to CTGCTCCC, the “PBM E-score” value falls from 0.0247 to -0.269.

Going from AAATCGGC to AGCAACCA, the “PBM E-score” value rises from 0.0135 to 0.26.

First: CGGTGACC
Second: AGTATTAG
The “PBM E-score” value of the first is lower: -0.0984 for the first, 0.185 for the second.

Compared with AAAAACCT, CTGCCCGA is lower in “PBM E-score” value: 0.102 for the first, -0.153 for the second.

First: AAGCGCCC
Second: AAAGGGTA
The “PBM E-score” value of the first is lower: -0.315 for the first, -0.054 for the second.

First: CAAGGGGA
Second: TCAAATCA
The “PBM E-score” value of the first is lower: -0.185 for the first, 0.0928 for the second.

First: CGAGTCTA
Second: AGGGCCTG
The “PBM E-score” value of the first is higher: -0.0512 for the first, -0.311 for the second.

First: ATTGCCTG
Second: GAACATTA
The “PBM E-score” value of the first is lower: -0.0331 for the first, 0.0725 for the second.

Compared with AACTGATG, CACGGATG is lower in “PBM E-score” value: 0.0347 for the first, -0.0768 for the second.

Going from CCATCACA to GTACGAAA, the “PBM E-score” value rises from -0.109 to 0.0843.

Going from GAACTATA to ACTCTAGG, the “PBM E-score” value falls from 0.214 to -0.17.

Going from CGGACAGC to CCGAGAGA, the “PBM E-score” value falls from 0.119 to 0.0584.

Compared with AGTTATAT, AACTCATA is lower in “PBM E-score” value: 0.29 for the first, 0.0842 for the second.

Compared with ACGCGCGA, AAAGAGCA is higher in “PBM E-score” value: -0.12 for the first, 0.127 for the second.

Compared with ACAGAGTC, GTTACCAA is higher in “PBM E-score” value: -0.193 for the first, 0.0418 for the second.

First: CGGGACAG
Second: AGCGCCAA
The “PBM E-score” value of the first is higher: -0.0243 for the first, -0.159 for the second.

Compared with GAGTTTCC, GTTGCTCA is lower in “PBM E-score” value: 0.12 for the first, -0.0746 for the second.

First: ACTCACCT
Second: GGTATGCA
The “PBM E-score” value of the first is higher: -0.157 for the first, -0.294 for the second.

Compared with CGGTATAC, AGAGGCCT is lower in “PBM E-score” value: -0.0915 for the first, -0.237 for the second.

Compared with ATCGATGG, AAGGTTGC is lower in “PBM E-score” value: -0.0596 for the first, -0.164 for the second.

First: CGCTTGGA
Second: CAGTATGC
The “PBM E-score” value of the first is lower: -0.152 for the first, -0.137 for the second.

Compared with TATCTCGA, AGTGTAAA is lower in “PBM E-score” value: 0.108 for the first, 0.0955 for the second.

Compared with GCCTCACC, GGCTCGAC is lower in “PBM E-score” value: -0.0723 for the first, -0.103 for the second.

Compared with GTGCCAGA, ACTCCAAC is higher in “PBM E-score” value: -0.23 for the first, -0.0146 for the second.

First: GCAGCAAA
Second: GATCCTCC
The “PBM E-score” value of the first is higher: -0.0223 for the first, -0.188 for the second.

Going from ACTCTAAT to GGGATTGA, the “PBM E-score” value falls from 0.156 to -0.00062.

Going from CACGTGTC to GGGCCCAA, the “PBM E-score” value rises from -0.248 to -0.0674.

Compared with CGGGGGGC, AAATCTAA is higher in “PBM E-score” value: -0.26 for the first, 0.0713 for the second.

Compared with AGTTTTGA, GCCTGAAC is lower in “PBM E-score” value: 0.00406 for the first, -0.274 for the second.

First: CTTCAGAA
Second: CCCTACGC
The “PBM E-score” value of the first is higher: 0.0634 for the first, -0.315 for the second.

Going from CCCCACCC to GGGCCACC, the “PBM E-score” value falls from -0.0481 to -0.146.

Going from CTCGGCGA to AAAGGAAA, the “PBM E-score” value rises from 0.0809 to 0.183.

First: ATGTAACA
Second: GTGTTTCA
The “PBM E-score” value of the first is higher: 0.191 for the first, 0.0164 for the second.

First: AGGAAGGC
Second: GCTATAAC
The “PBM E-score” value of the first is lower: -0.13 for the first, 0.068 for the second.

Compared with ACCTTCGG, CAATGTCC is lower in “PBM E-score” value: 0.147 for the first, 0.0764 for the second.

Going from ATCAGCCC to CCATATTC, the “PBM E-score” value rises from -0.221 to -0.0765.

First: ATATTTAA
Second: GACATTGC
The “PBM E-score” value of the first is higher: 0.303 for the first, -0.0607 for the second.

Going from CGGTACTC to ATGGTCCC, the “PBM E-score” value falls from -0.0748 to -0.225.

Going from AAGAGCGG to AGAGCAAT, the “PBM E-score” value falls from 0.0491 to 0.0229.

First: TCACCCGA
Second: CACCTTTC
The “PBM E-score” value of the first is higher: -0.005 for the first, -0.139 for the second.

First: TCAGACGA
Second: AAAAAGAC
The “PBM E-score” value of the first is lower: -0.0583 for the first, 0.119 for the second.

Compared with AGCTGATA, AAGAGGAC is lower in “PBM E-score” value: -0.0181 for the first, -0.0407 for the second.

Compared with CACATCAC, CTAAGTAC is higher in “PBM E-score” value: -0.135 for the first, 0.0447 for the second.

Going from GCATAAAC to AACATAGT, the “PBM E-score” value rises from 0.109 to 0.217.

Going from ATAGCTCA to ATCCTGTC, the “PBM E-score” value rises from -0.086 to 0.0454.

First: CGGGCCAA
Second: CACTAAGA
The “PBM E-score” value of the first is lower: -0.15 for the first, 0.0726 for the second.

Compared with GCAGCGCC, ACGTAGCT is higher in “PBM E-score” value: -0.218 for the first, -0.00505 for the second.

Going from CGGTGTCC to TGCCCTAA, the “PBM E-score” value falls from 0.0917 to -0.124.

First: AAGATAAC
Second: ACTTTTTA
The “PBM E-score” value of the first is lower: 0.209 for the first, 0.214 for the second.

Going from GGCGTGTA to ATCGTAAA, the “PBM E-score” value rises from -0.211 to 0.0376.

First: GCAACGCA
Second: CTGGGTGA
The “PBM E-score” value of the first is lower: -0.132 for the first, -0.0506 for the second.

Going from AATGGCGC to AAGGTGGA, the “PBM E-score” value rises from -0.0799 to 0.0583.

First: CGGTAAAC
Second: ATGCCAAA
The “PBM E-score” value of the first is lower: -0.128 for the first, -0.102 for the second.

First: CGATTACA
Second: AGACATCG
The “PBM E-score” value of the first is higher: -0.00072 for the first, -0.157 for the second.

Compared with ATCCTGAA, GTCCCCGA is lower in “PBM E-score” value: 0.105 for the first, 0.066 for the second.

Compared with CGACTCAA, CGACGTAA is lower in “PBM E-score” value: 0.0624 for the first, -0.00534 for the second.

Compared with ACCGGTAT, CACAGCAA is higher in “PBM E-score” value: -0.059 for the first, 0.187 for the second.

Compared with ACTGCTAT, TAGACTCA is lower in “PBM E-score” value: 0.0327 for the first, 0.0311 for the second.

Going from ACTCGGTC to GCGCAAGC, the “PBM E-score” value falls from -0.072 to -0.234.

First: ACACCAGC
Second: ACGCTTAA
The “PBM E-score” value of the first is lower: -0.143 for the first, 0.00904 for the second.

Going from ACTAGTCC to ATTAGTTG, the “PBM E-score” value falls from 0.236 to 0.163.

First: GCCTACTA
Second: CTAATACC
The “PBM E-score” value of the first is higher: 0.00387 for the first, -0.0565 for the second.

Going from AACTCGCG to GGGTAAGA, the “PBM E-score” value falls from 0.125 to -0.0307.

First: TACCATCA
Second: ATAATAAA
The “PBM E-score” value of the first is lower: -0.106 for the first, 0.339 for the second.

First: AGGGGACC
Second: CGCTTTGA
The “PBM E-score” value of the first is lower: -0.251 for the first, 0.00187 for the second.

First: AGGACTAG
Second: GATGCACC
The “PBM E-score” value of the first is lower: -0.0577 for the first, -0.0128 for the second.

Going from CGTTTGTC to GATTGCCC, the “PBM E-score” value rises from -0.162 to -0.142.

Going from ACTGCTTC to CTAACCAC, the “PBM E-score” value rises from -0.168 to -0.0263.

First: CAAGAAGG
Second: AATGTTCA
The “PBM E-score” value of the first is lower: -0.0822 for the first, 0.137 for the second.

Going from GTGGACCA to GGTCGGTA, the “PBM E-score” value rises from -0.204 to -0.0674.

Going from AGACTGAT to CACTCTGC, the “PBM E-score” value falls from 0.102 to -0.141.

Going from CGGGGGCC to GTCCGTGA, the “PBM E-score” value rises from -0.195 to 0.251.

Going from CGTCAAGC to TCGGCTCA, the “PBM E-score” value falls from -0.125 to -0.14.

Going from GCCATGGA to GAGTACGA, the “PBM E-score” value rises from -0.198 to 0.14.

First: GCAGTATA
Second: CGTCGCGA
The “PBM E-score” value of the first is higher: -0.0237 for the first, -0.0743 for the second.

First: ACCTGGCT
Second: AACATGAC
The “PBM E-score” value of the first is lower: -0.17 for the first, 0.165 for the second.

Compared with TATCGGAA, CTAGCGAC is lower in “PBM E-score” value: 0.26 for the first, -0.124 for the second.

Going from AATCCCAG to GTGCCCTA, the “PBM E-score” value falls from 0.0474 to -0.31.
